The list shows a part of the results. Cut-off read from the data, not from the text of the source: active = 3.2 or more and inactive = the rest. Most of these values are background signal.
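Note: displayed peptides selected on beads carrying the immobilized SH2 domain, with library peptides lacking any tyrosine serving as negative controls.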

The first test concerns the target SHP2 C-SH2 domain E139D. Briefly: enrichment score (SH2-bound / input frequency) (ratio); bacterial display of known human phosphotyrosine sites (pTyr-Var adds point mutants) read by sequencing; higher = stronger binding; tyrosines were phosphorylated by kinases first. As to conditions: peptide library: Human pTyr.
Take EHFMAAGYTAIEKVV [EPHA2_HUMAN_930]: the enrichment score was inactive: 0.891.
For SSSAASSYSFSDLNS [EMD_HUMAN_59], the enrichment score is inactive: 0.665.
For ESIKMQQYTEHFMAA [EPHA2_HUMAN_921], the enrichment score is inactive: 0.713.
In the case of AHRSLEQYDQVLDGA [EP15R_HUMAN_564], the enrichment score is inactive: 0.724.
In the case of EDDPEAAYTTTGGKI [EPHA6_HUMAN_831], the enrichment score is inactive: 1.02.
The same measure, in the same setting: then DDTSDPTYTSALGGK [EPHB2_HUMAN_780], with inactive: 0.723; and AITSPFKYQSLLTKN [ADRB2_HUMAN_141], with inactive: 1.03.
Consider VAIDPFTYEDPNEAV [EPHB3_HUMAN_614_YA], for which the enrichment score was inactive: 0.87.
In the case of TGGPAPQYGGGGGGG [EPHB4_HUMAN_987], the enrichment score was inactive: 0.339.
The same measure, in the same setting: the figure for AKSFIKDYPVVSIED [ENOA_HUMAN_287_YA] is inactive: 0.838.
As for TYIDPHTYEDPNQAV [EPHA5_HUMAN_656], the enrichment score was inactive: 0.573.
For the molecule FLDKQGFYVALRLVA [EP15R_HUMAN_74], the enrichment score is inactive: 1.77.
In the case of SAIKMVQYRDSFLTA [EPHB1_HUMAN_928], the enrichment score was inactive: 0.646.
Consider TAVDPHTYEDPTQAV [EPHA3_HUMAN_602_YA], for which the enrichment score was inactive: 0.774.
The same measure, in the same setting: the figure for DSIKMGQYKNNFVAA [EPHA6_HUMAN_978] is inactive: 0.988; for IPKEPSNYDFVYDCN [ELMO1_HUMAN_720] it is inactive: 1.13.
In the case of AAQSITHYRPVSASR [EMD_HUMAN_167_YA], the enrichment score was inactive: 1.23.
On to TAVDPFTYEDPNQAV [EPHA4_HUMAN_602_YA], for which the enrichment score is inactive: 0.772.

In the next test the target is SHP2 C-SH2 domain wild-type. Described as above. As to conditions: peptide library: Human pTyr.
In the case of EHFMAAGYTAIEKVV [EPHA2_HUMAN_930], the enrichment score is inactive: 1.55.
As for SSSAASSYSFSDLNS [EMD_HUMAN_59], the enrichment score was inactive: 0.489.
As for ESIKMQQYTEHFMAA [EPHA2_HUMAN_921], the enrichment score is inactive: 0.693.
As for AHRSLEQYDQVLDGA [EP15R_HUMAN_564], the enrichment score was inactive: 0.619.
EDDPEAAYTTTGGKI [EPHA6_HUMAN_831]: the enrichment score is inactive: 0.781.
For DDTSDPTYTSALGGK [EPHB2_HUMAN_780], the enrichment score was inactive: 0.608.
On the same count and under the same terms, the figure for AITSPFKYQSLLTKN [ADRB2_HUMAN_141] is inactive: 1.01.
For the molecule VAIDPFTYEDPNEAV [EPHB3_HUMAN_614_YA], the enrichment score is inactive: 0.827.
With TGGPAPQYGGGGGGG [EPHB4_HUMAN_987], the enrichment score was inactive: 0.505.
With AKSFIKDYPVVSIED [ENOA_HUMAN_287_YA], the enrichment score is inactive: 0.817.
Regarding TYIDPHTYEDPNQAV [EPHA5_HUMAN_656], the enrichment score is inactive: 0.885.
On to FLDKQGFYVALRLVA [EP15R_HUMAN_74], for which the enrichment score is inactive: 1.58.
SAIKMVQYRDSFLTA [EPHB1_HUMAN_928]: the enrichment score is inactive: 0.536.
Still for that read-out and setting: the figure for TAVDPHTYEDPTQAV [EPHA3_HUMAN_602_YA] is inactive: 0.752.
Turning to DSIKMGQYKNNFVAA [EPHA6_HUMAN_978], the enrichment score was inactive: 0.821.
For the molecule IPKEPSNYDFVYDCN [ELMO1_HUMAN_720], the enrichment score was inactive: 0.959.
Regarding AAQSITHYRPVSASR [EMD_HUMAN_167_YA], the enrichment score is inactive: 1.14.
In the case of TAVDPFTYEDPNQAV [EPHA4_HUMAN_602_YA], the enrichment score was inactive: 0.645.

The target in the next test is SHP2 N-SH2 domain L43F. Described as above. As to conditions: peptide library: Human pTyr.
Consider EHFMAAGYTAIEKVV [EPHA2_HUMAN_930], for which the enrichment score is inactive: 0.709.
Still for that read-out and setting: the figure for SSSAASSYSFSDLNS [EMD_HUMAN_59] is inactive: 0.642.
Take ESIKMQQYTEHFMAA [EPHA2_HUMAN_921]: the enrichment score was inactive: 0.788.
On the same count and under the same terms, the figure for AHRSLEQYDQVLDGA [EP15R_HUMAN_564] is inactive: 0.731; for EDDPEAAYTTTGGKI [EPHA6_HUMAN_831] it is inactive: 0.893.
The same measure, in the same setting: then DDTSDPTYTSALGGK [EPHB2_HUMAN_780], with inactive: 0.638; and AITSPFKYQSLLTKN [ADRB2_HUMAN_141], with inactive: 1.26.
For VAIDPFTYEDPNEAV [EPHB3_HUMAN_614_YA], the enrichment score is inactive: 0.682.
Same read-out and setting: then TGGPAPQYGGGGGGG [EPHB4_HUMAN_987], with inactive: 0.442; and AKSFIKDYPVVSIED [ENOA_HUMAN_287_YA], with inactive: 1.01; and TYIDPHTYEDPNQAV [EPHA5_HUMAN_656], with inactive: 0.737.
On to FLDKQGFYVALRLVA [EP15R_HUMAN_74], for which the enrichment score is inactive: 2.1.
Consider SAIKMVQYRDSFLTA [EPHB1_HUMAN_928], for which the enrichment score was inactive: 0.671.
Consider TAVDPHTYEDPTQAV [EPHA3_HUMAN_602_YA], for which the enrichment score was inactive: 0.746.
Same read-out and setting: then DSIKMGQYKNNFVAA [EPHA6_HUMAN_978], with inactive: 0.881; and IPKEPSNYDFVYDCN [ELMO1_HUMAN_720], with inactive: 0.901; and AAQSITHYRPVSASR [EMD_HUMAN_167_YA], with inactive: 0.856.
In the case of TAVDPFTYEDPNQAV [EPHA4_HUMAN_602_YA], the enrichment score was inactive: 1.1.

The target of the next test is SHP2 N-SH2 domain T42A. The description is as above. As to conditions: peptide library: Human pTyr.
Regarding EHFMAAGYTAIEKVV [EPHA2_HUMAN_930], the enrichment score is inactive: 0.69.
Still for that read-out and setting: then SSSAASSYSFSDLNS [EMD_HUMAN_59], with inactive: 0.582.
On to ESIKMQQYTEHFMAA [EPHA2_HUMAN_921], for which the enrichment score was inactive: 0.768.
For the molecule AHRSLEQYDQVLDGA [EP15R_HUMAN_564], the enrichment score was inactive: 0.722.
The same measure, in the same setting: then EDDPEAAYTTTGGKI [EPHA6_HUMAN_831], with inactive: 0.759.
For the molecule DDTSDPTYTSALGGK [EPHB2_HUMAN_780], the enrichment score is inactive: 0.621.
Consider AITSPFKYQSLLTKN [ADRB2_HUMAN_141], for which the enrichment score was inactive: 1.03.
Consider VAIDPFTYEDPNEAV [EPHB3_HUMAN_614_YA], for which the enrichment score was inactive: 0.813.
As to TGGPAPQYGGGGGGG [EPHB4_HUMAN_987], the enrichment score was inactive: 0.617.
The same measure, in the same setting: the figure for AKSFIKDYPVVSIED [ENOA_HUMAN_287_YA] is inactive: 0.75; for TYIDPHTYEDPNQAV [EPHA5_HUMAN_656] it is inactive: 0.746; for FLDKQGFYVALRLVA [EP15R_HUMAN_74] it is inactive: 2.17.
Consider SAIKMVQYRDSFLTA [EPHB1_HUMAN_928], for which the enrichment score was inactive: 0.52.
For TAVDPHTYEDPTQAV [EPHA3_HUMAN_602_YA], the enrichment score is inactive: 0.58.
With DSIKMGQYKNNFVAA [EPHA6_HUMAN_978], the enrichment score was inactive: 0.92.
The same measure, in the same setting: then IPKEPSNYDFVYDCN [ELMO1_HUMAN_720], with inactive: 0.949; and AAQSITHYRPVSASR [EMD_HUMAN_167_YA], with inactive: 1.3.
As for TAVDPFTYEDPNQAV [EPHA4_HUMAN_602_YA], the enrichment score is inactive: 0.77.

In a further test the target is SHP2 N-SH2 domain T52S. The test is described as above. As to conditions: peptide library: Human pTyr.
Consider EHFMAAGYTAIEKVV [EPHA2_HUMAN_930], for which the enrichment score was inactive: 0.77.
As to SSSAASSYSFSDLNS [EMD_HUMAN_59], the enrichment score is inactive: 0.538.
Regarding ESIKMQQYTEHFMAA [EPHA2_HUMAN_921], the enrichment score is inactive: 0.82.
Same read-out and setting: the figure for AHRSLEQYDQVLDGA [EP15R_HUMAN_564] is inactive: 0.937; for EDDPEAAYTTTGGKI [EPHA6_HUMAN_831] it is inactive: 0.851.
Regarding DDTSDPTYTSALGGK [EPHB2_HUMAN_780], the enrichment score was inactive: 0.65.
On to AITSPFKYQSLLTKN [ADRB2_HUMAN_141], for which the enrichment score is inactive: 0.989.
For VAIDPFTYEDPNEAV [EPHB3_HUMAN_614_YA], the enrichment score was inactive: 1.05.
Turning to TGGPAPQYGGGGGGG [EPHB4_HUMAN_987], the enrichment score was inactive: 1.4.
For AKSFIKDYPVVSIED [ENOA_HUMAN_287_YA], the enrichment score is inactive: 0.783.
TYIDPHTYEDPNQAV [EPHA5_HUMAN_656]: the enrichment score is inactive: 0.711.
Regarding FLDKQGFYVALRLVA [EP15R_HUMAN_74], the enrichment score is inactive: 2.26.
For the molecule SAIKMVQYRDSFLTA [EPHB1_HUMAN_928], the enrichment score was inactive: 0.567.
As for TAVDPHTYEDPTQAV [EPHA3_HUMAN_602_YA], the enrichment score is inactive: 0.728.
Still for that read-out and setting: the figure for DSIKMGQYKNNFVAA [EPHA6_HUMAN_978] is inactive: 0.729.
For the molecule IPKEPSNYDFVYDCN [ELMO1_HUMAN_720], the enrichment score is inactive: 1.06.
With AAQSITHYRPVSASR [EMD_HUMAN_167_YA], the enrichment score is inactive: 1.15.
As to TAVDPFTYEDPNQAV [EPHA4_HUMAN_602_YA], the enrichment score was inactive: 0.656.

The target in another test is SHP2 N-SH2 domain wild-type. The description is as above. As to conditions: peptide library: Human pTyr.
EHFMAAGYTAIEKVV [EPHA2_HUMAN_930]: the enrichment score is inactive: 0.556.
On to SSSAASSYSFSDLNS [EMD_HUMAN_59], for which the enrichment score is inactive: 0.585.
With ESIKMQQYTEHFMAA [EPHA2_HUMAN_921], the enrichment score is inactive: 0.699.
Turning to AHRSLEQYDQVLDGA [EP15R_HUMAN_564], the enrichment score was inactive: 0.766.
As to EDDPEAAYTTTGGKI [EPHA6_HUMAN_831], the enrichment score is inactive: 0.857.
DDTSDPTYTSALGGK [EPHB2_HUMAN_780]: the enrichment score is inactive: 0.603.
For the molecule AITSPFKYQSLLTKN [ADRB2_HUMAN_141], the enrichment score was inactive: 1.15.
In the case of VAIDPFTYEDPNEAV [EPHB3_HUMAN_614_YA], the enrichment score is inactive: 0.969.
Regarding TGGPAPQYGGGGGGG [EPHB4_HUMAN_987], the enrichment score was inactive: 0.942.
As to AKSFIKDYPVVSIED [ENOA_HUMAN_287_YA], the enrichment score is inactive: 1.06.
Take TYIDPHTYEDPNQAV [EPHA5_HUMAN_656]: the enrichment score was inactive: 0.512.
FLDKQGFYVALRLVA [EP15R_HUMAN_74]: the enrichment score is inactive: 2.34.
Regarding SAIKMVQYRDSFLTA [EPHB1_HUMAN_928], the enrichment score is inactive: 0.634.
With TAVDPHTYEDPTQAV [EPHA3_HUMAN_602_YA], the enrichment score is inactive: 0.709.
Turning to DSIKMGQYKNNFVAA [EPHA6_HUMAN_978], the enrichment score is inactive: 1.05.
The same measure, in the same setting: then IPKEPSNYDFVYDCN [ELMO1_HUMAN_720], with inactive: 1.03; and AAQSITHYRPVSASR [EMD_HUMAN_167_YA], with inactive: 1.13; and TAVDPFTYEDPNQAV [EPHA4_HUMAN_602_YA], with inactive: 0.457.

(Values after the supplement of paper PMC10369915.)
